According to publication PMC3599065:
Substitutions are numbered along the chain they refer to. These are yes or no findings as the source states them, for the method shown. Binding seen in cells or lysates may run through a third protein. Some entries that bind do so weakly or less than the wild type. Sequences can lack the tags named with a protein. Values belong to the binder of their own block, whether it stands above or below them.

Assays:
Experiment in all cases: pull-down; lysates of HEK293T cells expressing a TAP-tagged JIP1 or JIP3 construct with V5-KLC, V5-KHC and a GFP-tagged partner (GFP-JIP3, GFP-JIP1, GFP-DLK or GFP-APP-C constructs), precipitated with streptavidin sepharose, western blot
[1] = target: T1, TAP-JIP1-WT (in HEK293T) (mouse) (UniProt Q9WVI9)
T1 sequence: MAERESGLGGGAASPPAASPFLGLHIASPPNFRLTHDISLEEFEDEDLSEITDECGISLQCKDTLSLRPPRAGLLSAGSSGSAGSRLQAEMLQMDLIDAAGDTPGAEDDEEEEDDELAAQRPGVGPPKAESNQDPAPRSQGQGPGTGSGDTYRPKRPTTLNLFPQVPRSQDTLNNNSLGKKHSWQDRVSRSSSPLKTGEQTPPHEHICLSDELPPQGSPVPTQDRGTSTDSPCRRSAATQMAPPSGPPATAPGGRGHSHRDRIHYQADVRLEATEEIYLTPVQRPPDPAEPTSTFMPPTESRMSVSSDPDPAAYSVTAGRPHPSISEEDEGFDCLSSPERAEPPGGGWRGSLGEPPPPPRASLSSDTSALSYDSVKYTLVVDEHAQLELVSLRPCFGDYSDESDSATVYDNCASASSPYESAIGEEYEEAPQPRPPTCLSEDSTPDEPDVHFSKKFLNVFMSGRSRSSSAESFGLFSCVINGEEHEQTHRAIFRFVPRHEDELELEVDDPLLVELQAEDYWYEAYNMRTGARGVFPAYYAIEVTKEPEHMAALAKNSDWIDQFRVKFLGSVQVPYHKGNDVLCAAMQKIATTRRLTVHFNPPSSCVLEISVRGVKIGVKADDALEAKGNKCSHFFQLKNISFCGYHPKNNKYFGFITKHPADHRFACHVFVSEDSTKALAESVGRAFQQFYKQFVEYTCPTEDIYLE

TAP-JIP1-dCT (mouse) = target: T2, TAP-JIP1-dCT (mouse) (UniProt Q9WVI9)
T2 sequence: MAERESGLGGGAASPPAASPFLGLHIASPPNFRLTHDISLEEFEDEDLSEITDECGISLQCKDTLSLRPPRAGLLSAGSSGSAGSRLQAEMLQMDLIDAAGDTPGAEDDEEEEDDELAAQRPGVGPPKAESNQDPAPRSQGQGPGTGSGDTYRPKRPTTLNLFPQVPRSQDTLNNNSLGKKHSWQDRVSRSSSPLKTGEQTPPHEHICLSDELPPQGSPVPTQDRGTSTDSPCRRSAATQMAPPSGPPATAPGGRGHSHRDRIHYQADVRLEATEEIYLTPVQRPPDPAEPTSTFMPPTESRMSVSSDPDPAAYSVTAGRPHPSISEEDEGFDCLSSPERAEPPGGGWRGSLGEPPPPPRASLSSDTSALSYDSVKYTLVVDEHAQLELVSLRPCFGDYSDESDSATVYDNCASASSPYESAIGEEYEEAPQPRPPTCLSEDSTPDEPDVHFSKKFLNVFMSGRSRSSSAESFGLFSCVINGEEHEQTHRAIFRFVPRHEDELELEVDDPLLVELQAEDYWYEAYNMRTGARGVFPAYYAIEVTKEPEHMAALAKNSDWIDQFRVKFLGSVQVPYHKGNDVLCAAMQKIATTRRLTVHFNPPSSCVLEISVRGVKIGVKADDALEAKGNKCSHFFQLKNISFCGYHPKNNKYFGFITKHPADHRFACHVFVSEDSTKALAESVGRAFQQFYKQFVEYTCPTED

TAP-JIP3-WT (mouse) = target: T3, TAP-JIP3-WT (mouse) (UniProt Q9ESN9)
T3 sequence: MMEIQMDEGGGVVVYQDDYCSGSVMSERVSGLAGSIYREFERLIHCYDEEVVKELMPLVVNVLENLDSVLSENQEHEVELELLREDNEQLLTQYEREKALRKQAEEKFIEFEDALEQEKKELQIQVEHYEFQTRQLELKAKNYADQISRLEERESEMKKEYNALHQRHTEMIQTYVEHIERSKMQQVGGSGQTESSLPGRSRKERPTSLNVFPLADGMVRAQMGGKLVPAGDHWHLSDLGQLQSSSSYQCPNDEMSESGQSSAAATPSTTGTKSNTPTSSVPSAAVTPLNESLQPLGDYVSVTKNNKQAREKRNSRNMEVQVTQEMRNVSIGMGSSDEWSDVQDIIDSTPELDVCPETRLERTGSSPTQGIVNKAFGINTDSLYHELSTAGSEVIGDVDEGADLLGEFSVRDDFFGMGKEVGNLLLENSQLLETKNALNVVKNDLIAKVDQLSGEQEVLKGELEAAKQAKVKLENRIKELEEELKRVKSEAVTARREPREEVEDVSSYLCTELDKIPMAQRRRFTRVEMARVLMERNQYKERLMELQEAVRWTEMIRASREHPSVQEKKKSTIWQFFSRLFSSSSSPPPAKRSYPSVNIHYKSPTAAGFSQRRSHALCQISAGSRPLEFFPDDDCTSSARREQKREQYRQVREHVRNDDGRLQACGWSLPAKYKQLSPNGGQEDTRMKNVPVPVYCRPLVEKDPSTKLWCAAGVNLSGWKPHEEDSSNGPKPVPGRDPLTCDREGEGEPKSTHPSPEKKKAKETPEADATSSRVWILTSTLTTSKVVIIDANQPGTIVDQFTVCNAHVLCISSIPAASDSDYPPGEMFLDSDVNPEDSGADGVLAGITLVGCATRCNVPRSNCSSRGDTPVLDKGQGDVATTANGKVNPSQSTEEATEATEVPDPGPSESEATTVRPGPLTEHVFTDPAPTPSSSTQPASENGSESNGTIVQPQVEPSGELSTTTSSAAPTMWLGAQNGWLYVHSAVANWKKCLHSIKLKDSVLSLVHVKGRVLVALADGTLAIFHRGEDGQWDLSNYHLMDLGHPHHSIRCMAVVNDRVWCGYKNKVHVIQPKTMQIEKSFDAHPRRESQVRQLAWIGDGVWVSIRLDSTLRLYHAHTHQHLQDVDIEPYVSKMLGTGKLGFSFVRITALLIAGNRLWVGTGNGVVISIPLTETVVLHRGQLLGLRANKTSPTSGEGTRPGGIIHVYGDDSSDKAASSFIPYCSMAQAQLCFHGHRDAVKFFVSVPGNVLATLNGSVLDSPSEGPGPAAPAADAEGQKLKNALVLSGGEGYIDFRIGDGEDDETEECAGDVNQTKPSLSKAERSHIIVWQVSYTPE

B3: GFP-DLK (protein, UniProt Q63796 1-888)
chain: MACLHETRTPSPSFGGFVSTLSEASMRKLDPDTSDCTPEKDLTPTQCVLRDVVPLGGQGGGGPSPSPGGEPPPEPFANSVLQLHEQDTGGPGGATGSPESRASRVRADEVRLQCQSGSGFLEGLFGCLRPVWTMIGKAYSTEHKQQQEDLWEVPFEEILDLQWVGSGAQGAVFLGRFHGEEVAVKKVRDLKETDIKHLRKLKHPNIITFKGVCTQAPCYCILMEFCAQGQLYEVLRAGRPVTPSLLVDWSMGIAGGMNYLHLHKIIHRDLKSPNMLITYDDVVKISDFGTSKELSDKSTKMSFAGTVAWMAPEVIRNEPVSEKVDIWSFGVVLWELLTGEIPYKDVDSSAIIWGVGSNSLHLPVPSSCPDGFKILLRQCWNRKPRNRPSFRQILLHLDIASADVLSTPQETYFKSQAEWREEVKLHFEKIKSEGTCLHRLEEELVMRRREELRHALDIREHYERKLERANNLYMELNALMLQLELKERELLRREQALERRCPGLLKSHTSRSLLHGNTMEKLIKKRNVPQKLSPHSKRPDILKTESLLPKLDAALSGVGLPGCPKAPPSPGRSRRGKTRHRKASAKGSCGDLPGLRAALPPHEPGGLGSPGGLGVGPTAWDASPPALRGLHHDLLLRKMSSSSPDLLSAALGARGRGATGGARDPGSPPPPQGDTPPSEGSAPGSTSPDSPGGAKGEPPPPVGPGEGVGLLGTGREGTTGRGGSRAGYQHLTPAALLYRAAVTRSQKRGISSEEEEGEVDSEVELPPSQRWPQGPNMRQSLSTFSSENPSDVEEGTASEPSPSGTPEVGSTNTDERPDERSDDMCSQGSEIPLDLPTSEVVPERETSSLPMQHQDDQGPNPEDSDCDSTELDNSNSIDALPPPASLPP
- binding [1]: binds

B4: GFP-JIP1-WT (in HEK293T) (protein, UniProt Q9WVI9 1-707)
chain: T1 sequence
- binding (TAP-JIP3-WT (mouse)): binds

More lines, now with the values ahead:

- binding [1]: binds
- binding (TAP-JIP1-dCT (mouse)): binds
B1: GFP-JIP3-WT (protein, UniProt Q9ESN9 1-1337)
chain: T3 sequence

- binding [1]: binds
B2: GFP-JIP3-LZ4A (protein, UniProt Q9ESN9 1-1337)
chain: T3 sequence with L431A, L438A, L452A, L459A
